# The other results are listed elsewhere or left out.
# Assays:
# [1] = tested on: HSkMC (human skeletal muscle cells); test: cytotoxicity call (relative viability < 0.9); conditions: 10 µM
# [2] = tested on: HepG2; test: cytotoxicity call (relative viability < 0.9); conditions: 10 µM
# [3] = tested on: S. aureus RN4220; test: growth inhibition call (relative growth <= 0.2); conditions: 50 µM
SMILES,cytotoxicity call [1],cytotoxicity call [2],growth inhibition call [3]
Cn1nc(C(=O)O)c2ccccc2c1=O,inactive,inactive,inactive
Cc1noc(C)c1S(=O)(=O)Nc1ccc2c(c1)CC(=O)N([C@@H](C)CO)C[C@H](C)[C@@H](CN(C)CC1CC1)O2,inactive,inactive,inactive
COCC#Cc1ccc([C@@H]2[C@@H](CO)N3C(=O)CN(C(=O)C4CCOCC4)C[C@@H]23)cc1,inactive,inactive,inactive
C[C@@H]1CN([C@H](C)CO)C(=O)c2cc(NS(=O)(=O)c3ccc(F)cc3)ccc2O[C@@H](C)CCCCO[C@H]1CN(C)CC1CCCCC1,inactive,active,inactive
O=C1c2ccccc2[C@](Cc2ccccc2I)(C(=O)NCC(F)(F)F)[C@H](c2ccc(CO)cc2)N1C1CCCCC1,inactive,inactive,inactive
COCC#Cc1cnc2c(c1)C(=O)N([C@H](C)CO)C[C@@H](C)[C@H](CN(C)S(=O)(=O)c1cn(C)cn1)O2,inactive,inactive,inactive
C[C@@H](C(=O)N(C)C[C@H]1OCc2ccccc2-c2c(n(C)c3ccccc23)C(=O)N([C@@H](C)CO)C[C@@H]1C)c1ccccc1,inactive,inactive,inactive
C[C@H]1CN([C@@H](C)CO)C(=O)c2cccc(NS(=O)(=O)c3ccccc3)c2O[C@@H]1CN(C)S(=O)(=O)c1ccc(F)cc1,inactive,inactive,inactive
C[C@@H]1CN([C@@H](C)CO)C(=O)c2cccc(NC(=O)NC3CCCCC3)c2O[C@@H]1CN(C)Cc1ccc(Cl)c(Cl)c1,inactive,inactive,inactive
CCOC(N)=O,inactive,inactive,inactive
C[C@H]1CN([C@@H](C)CO)C(=O)c2ccccc2-c2ccccc2CO[C@H]1CN(C)C(=O)Nc1ccccc1C(F)(F)F,inactive,inactive,inactive
C[C@H]1CN([C@@H](C)CO)C(=O)c2c(c3ccccc3n2C)-c2ccccc2CO[C@H]1CN(C)Cc1ccc(C(F)(F)F)cc1,inactive,inactive,inactive
C[C@@H]1CN([C@@H](C)CO)C(=O)c2cc(NC(=O)CCN3CCOCC3)ccc2O[C@H]1CN(C)Cc1ccccc1,inactive,inactive,inactive
COc1ccc(S(=O)(=O)Nc2ccc3c(c2)C(=O)N([C@@H](C)CO)C[C@@H](C)[C@@H](CN(C)S(=O)(=O)c2ccccc2)O3)cc1,inactive,inactive,inactive
CC[C@H]1OC(=O)C[C@@H](O)[C@H](C)[C@@H](O[C@@H]2O[C@H](C)C[C@H](N(C)C)[C@H]2O)[C@@H](CC=O)C[C@@H](C)C(=O)/C=C/[C@]2(C)O[C@H]2[C@@H]1C,inactive,inactive,active
COc1ccc(C#Cc2ccc([C@H]3[C@@H](CO)N4CCCCN(S(=O)(=O)c5cn(C)cn5)C[C@@H]34)cc2)cc1,inactive,inactive,inactive
C[C@@H]1CN([C@H](C)CO)C(=O)c2cccc(NS(=O)(=O)c3ccc(F)cc3)c2O[C@@H]1CN(C)Cc1ccncc1,inactive,inactive,inactive
CCNC(=O)C[C@H]1C=C[C@@H](NC(=O)C2CCOCC2)[C@@H](CO)O1,inactive,inactive,inactive
COC(=O)CCCCCCC(=O)N/N=C/[C@H](O)[C@H](O)[C@@H](O)[C@H](C)O,inactive,inactive,inactive
CCCN(CCC)S(=O)(=O)c1ccc(C(=O)O)cc1,inactive,inactive,inactive
COc1ccc(C#Cc2cnc3c(c2)C(=O)N([C@H](C)CO)C[C@H](C)[C@H](CN(C)S(=O)(=O)c2ccc(C#N)cc2)O3)cc1OC,inactive,inactive,inactive
Cc1noc(C)c1NC(=O)N(C)C[C@@H]1Oc2ccc(NS(=O)(=O)c3cn(C)cn3)cc2C(=O)N([C@@H](C)CO)C[C@H]1C,inactive,inactive,inactive
CO[C@@H]1CN(C)C(=O)c2cc(NC(=O)C3CC3)ccc2OC[C@@H](C)N(C(=O)CN2CCOCC2)C[C@@H]1C,inactive,inactive,inactive
Cc1noc(C)c1NC(=O)N(C)C[C@@H]1Oc2ccc(NC(=O)NC(C)C)cc2C(=O)N([C@@H](C)CO)C[C@@H]1C,inactive,inactive,inactive
C[C@@H]1CCCCO[C@@H](CN(C)C(=O)Nc2ccccc2)[C@H](C)CN([C@@H](C)CO)C(=O)c2cc(NS(=O)(=O)c3ccc(F)cc3)ccc2O1,inactive,inactive,inactive
C[C@H]1CCCCO[C@H](CN(C)Cc2ccc(Cl)c(Cl)c2)[C@@H](C)CN([C@@H](C)CO)C(=O)c2cc(NC(=O)c3ccccc3)ccc2O1,active,inactive,inactive

# From the antibiotic and cytotoxicity screens of Wong et al. (2023)
